Results published in PubChem BioAssay AID1030 (National Center for Advancing Translational Sciences (NCATS), 2008).
Several values for one entry are separate records, joined by “and”; a condition that tells them apart may be missing. Identical values can stand only once. Hit rate of the full screen: of about 220,000 compounds, about 16,000 (7.3%) were called active. Inconclusive means that the source gave no clear call. Such entries were picked first, then a sample of the others. The call rests on the fitted dose curve; in most records, active means well fitted inhibition curve with a large enough effect (not every such curve was filed as active); inconclusive means small, poorly fitted or top-dose-only effect, or another doubt; inactive means no such curve, though single readings can be large or run the other way. Where the call is inconclusive, the potency comes from a doubtful curve fit.

Each compound was assayed against Aldehyde dehydrogenase 1A1 (Homo sapiens) (UniProt P00352) (assay: qHTS Assay for Inhibitors of Aldehyde Dehydrogenase 1 (ALDH1A1)). Conditions: Purified ALDH1A1, NADH fluorescence, propionaldehyde substrate; series mostly up to 75.3 µM; activity, negative = inhibition: at the top concentration.
Potency means the concentration at half of the fitted maximal effect; tags describe the fitted curve by direction and shape.
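Wherever activity, negative = inhibition is given: plate controls were no enzyme wells and a reference inhibitor.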

UniProt P00352, sequence (P00352 whole entry, looked up): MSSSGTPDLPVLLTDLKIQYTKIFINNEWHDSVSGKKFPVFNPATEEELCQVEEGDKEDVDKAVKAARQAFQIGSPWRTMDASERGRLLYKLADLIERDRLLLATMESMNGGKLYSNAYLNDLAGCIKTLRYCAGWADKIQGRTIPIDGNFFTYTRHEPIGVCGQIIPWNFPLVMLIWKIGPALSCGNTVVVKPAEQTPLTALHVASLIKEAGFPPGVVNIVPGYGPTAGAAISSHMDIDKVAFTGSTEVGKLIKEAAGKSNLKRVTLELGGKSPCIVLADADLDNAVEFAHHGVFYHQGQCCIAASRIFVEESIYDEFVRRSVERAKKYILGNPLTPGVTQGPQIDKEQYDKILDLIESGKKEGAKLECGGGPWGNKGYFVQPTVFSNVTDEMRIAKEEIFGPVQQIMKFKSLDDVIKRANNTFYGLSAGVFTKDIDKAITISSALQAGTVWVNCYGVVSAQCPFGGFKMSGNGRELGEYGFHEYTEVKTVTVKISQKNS

Potency, active:
Cc1ccc(S(=O)(=O)NC2CCCCC2)c2nsnc12 15.8 µM, Cc1ccc(-c2csc(=Nc3cccnc3)n2CCCN2CCCC2=O)cc1C 7.94 µM, CCOC(=O)C1=C(C)NC(=S)NC1c1ccsc1 (centres undefined) 7.08 µM, COc1ccc(C(=O)Nc2cc(C)ccc2NC(=O)COc2ccccc2)cc1 3.98 µM, Cc1ccc(NCN2C(=O)C(=O)c3ccccc32)nc1 0.141 µM, Cc1ccc(C)c(-n2nnnc2SCC(=O)NNC(=O)c2ccco2)c1 8.91 µM, COc1ccccc1CNC(=O)/C=C/c1ccc(Br)o1 12.6 µM, Cc1ccc(/C=N/c2sc3c(c2C#N)CCC3)o1 10 µM, C=C(C)CN=C1NN=C(c2cc(C)n(-c3ccc(C)cc3)c2C)CS1 12.6 µM

Potency, inconclusive:
c1ccc2c(c1)ncn2-c1ccc(-c2ccnc3ncnn23)cc1 37.7 µM [inhibitor, single point], c1ccc(-c2cn3nc4c(nc3n2)CCCC4)cc1 25.1 µM [inhibitor, partial curve], CC(=O)N1CCC2(CCCN(c3cccc(-c4ccccc4)c3)C2)CC1 39.8 µM [inhibitor, single point], COc1ccc(C2C3=C(CCCC3=O)Nc3nc(SCc4ccc(C(=O)O)cc4)nn32)cc1OC (centres undefined) 39.8 µM [inhibitor, single point], CCCOc1ccc(/C(O)=C2\C(=O)C(=O)N(CCCN(C)C)C23C(=O)N(C)c2ccccc23)cc1 (centres undefined) 20 µM [inhibitor, partial curve], O=C1CCCc2c1sc1nc3n(c(=O)c21)CCCCC3 25.1 µM [inhibitor, partial curve], CCOC(=O)NC(NCc1ccccc1Cl)(C(F)(F)F)C(F)(F)F 31.6 µM [inhibitor, single point], CCCN1C2CCCC1CC(NC(=O)Nc1ccc(C(C)C)cc1)C2 (centres undefined) 39.8 µM [inhibitor, single point], O=C(Nc1ccccc1N1CCN(C(=O)c2ccc(Cl)cc2)CC1)c1ccc(Br)cc1 35.5 µM [inhibitor, single point], O=C(O)CCC(=O)N1CCN(c2ccc(C(=O)c3ccc(F)cc3)cc2)CC1 39.8 µM [inhibitor, single point], CC(O)CCCCCCC/C=C/C=C/C(N)=O (centres undefined) 7.08 µM [inhibitor, single point], COc1ccc(S(=O)(=O)N2CCCC2C(=O)Nc2nc3c(s2)CCCC3)cc1 (centres undefined) 28.2 µM [inhibitor, single point], Cc1ccc2cc(C(c3nnnn3C(C)(C)C)N3CCCC3)c(=O)[nH]c2c1C (centres undefined) 14.1 µM [inhibitor, partial curve], Cc1ccc(NC(=S)NNS(=O)(=O)c2ccc3ccccc3c2)cc1Cl 10 µM [inhibitor, partial curve], CC(=O)NCC(=O)N1CCCC(C(=O)c2ccc3c4c(cccc24)CC3)C1 (centres undefined) 28.2 µM [inhibitor, single point], COc1ccc(NC(=O)c2ccc3nc(-c4ccccc4)c(-c4ccccc4)nc3c2)c(OC)c1 39.8 µM [inhibitor, single point], CN(C)c1ccc(-c2cncnc2-n2ccnc2)cc1 0.224 µM [inhibitor, full curve, poor fit], CCSc1ncc(/C=N/Nc2ccc(Cl)cc2)n1C 39.8 µM [inhibitor, single point], Cc1ccc(CSC2=Nc3ccccc3C3=NC(CC(=O)NCc4ccco4)C(=O)N23)cc1 (centres undefined) 28.2 µM [inhibitor, partial curve], COc1ccc(Cl)cc1NC(=O)CN(c1ccccc1)S(=O)(=O)N(C)C 39.8 µM [inhibitor, single point], Cn1c(SCC(=O)C(C)(C)C)nnc1-c1ccccn1 22.4 µM [inhibitor, partial curve], O=c1c2ccccc2nc2n1CCc1c-2[nH]c2ccccc12 28.2 µM [inhibitor, partial curve] and 35.5 µM [inhibitor, single point], C/C(=N\Nc1ccc(F)cc1F)c1ccc(F)cc1 37.7 µM [inhibitor, single point], COc1ccc(C(=O)NCC(=O)OCC(=O)NC2CCCC2)cc1 17.8 µM [inhibitor, partial curve], CC(C)[C@H](NC(=O)c1ccco1)C(=O)OCC(=O)N1CCc2ccccc21 39.8 µM [inhibitor, single point], COc1ccc(OC)c(C2CC(=O)c3c([nH]c(C(=O)OCC4CCCO4)c3C)C2)c1 (centres undefined) 35.5 µM [inhibitor, single point], O=C(/C=C/C=C/c1ccc2c(c1)OCO2)N1CCCCC1 39.8 µM [inhibitor, single point], CN1C(=O)C(O)(CC(=O)c2ccccn2)c2cc(Br)ccc21 (centres undefined) 37.7 µM [inhibitor, single point], CN(C)CCn1c(=O)n(-c2ccc(F)cc2)c(=O)c2c3c(sc21)CCCCC3 35.5 µM [inhibitor, single point], CC(C)N(C(=O)CSc1nnnn1-c1ccc2c(c1)OCO2)C(C)C 14.1 µM [inhibitor, partial curve, poor fit], COC(=O)c1[nH]c2ccc(Cl)cc2c1NC(=O)CN1CCc2cc(OC)c(OC)cc2C1 28.2 µM [inhibitor, single point], O=C(NC(=S)Nn1cnc2c(cnn2-c2ccccc2)c1=O)c1ccc(Oc2ccccc2)cc1 44.7 µM [inhibitor, single point], O=C(CCc1ccc(S(=O)(=O)N2CCOCC2)cc1)N1CCCC1 25.1 µM [inhibitor, single point], CN(C)c1ccccc1CN1CCCN(Cc2ccccc2N(C)C)C1c1ccncc1 3.55 µM [inhibitor, single point], CCOc1cc(CN2CCSCC2)ccc1O 22.4 µM [inhibitor, single point], CCN(CC)C(=O)CSc1nnc(-c2ccco2)n1Cc1ccco1 35.5 µM [inhibitor, single point], CCN(CC)C(=O)CSCC(=O)Nc1ccccc1 28.2 µM [inhibitor, single point], COc1ccc(-n2c(Cc3cccn3C)nnc2SCC(=O)Nc2ccc(C)c(Cl)c2)cc1 28.2 µM [inhibitor, partial curve], CCNS(=O)(=O)c1ccc2c3c(cccc13)C(=O)N2 39.8 µM [inhibitor, single point], Cc1ccc(C)c(NCC(=O)NNC(=S)Nc2ccccc2)c1 39.8 µM [inhibitor, single point], CC1=C(C(=O)NCc2ccc3c(c2)OCO3)C2(CCC(C)CC2)OC1=O (centres undefined) 31.6 µM [inhibitor, partial curve, poor fit], Cc1ccc(-n2ncc3c(SCc4cccc(C)c4)ncnc32)cc1 37.7 µM [inhibitor, single point], c1ccc(CSc2nnc(-c3ccncc3)o2)cc1 39.8 µM [inhibitor, single point], C=CCn1c(-c2oc3nc(-c4ccccc4)cc(-c4ccccc4)c3c2N)n[nH]c1=S 20 µM [inhibitor, partial curve]

activity, negative = inhibition, inactive:
Cc1n(N)c2ccccc2[n+]1CC(=O)c1ccccc1 4.55%, O=C(Nc1ccc(Br)cc1F)c1cccnc1 8.4%, Cn1nnnc1SCC(=O)N1c2ccccc2Sc2ccccc21 5.12%, C#CCOCCOCCOCCNc1nc(N2CCN(C(=O)[C@H](Cc3cc4ccccc4[nH]3)n3cc([C@@H](N)C(C)CC)nn3)CC2)nc(N2CCN(C(=O)[C@H](Cc3cc4ccccc4[nH]3)n3cc([C@@H](N)Cc4ccc(O)cc4)nn3)CC2)n1 (some centres undefined) -3.16%, OCC1O[C@H](O[C@H]2C(O)C(O)C(O)O[C@@H]2CO)C(O)C(O)C1O (some centres undefined) -0.756%, CC(C)C(=O)N(c1ccc2oc(=O)sc2c1)S(=O)(=O)c1ccccc1 -0.848%, Cc1ccc(C2CC(=O)C(C=NCCN3CCN(C(=S)Nc4ccc(F)cc4)CC3)=C(O)C2)cc1 (centres undefined) -12.8%, O=C1/C(=C\c2ccc(-c3ccccc3[N+](=O)[O-])o2)C(c2ccccc2)=NN1c1ccccc1 -10.5%, CCn1c(SCC(=O)c2ccccc2)nnc1-c1cnccn1 -7.87%, CC(=O)c1c(O)c2ccccc2n(C(C)C)c1=O 1.29%, Cn1c(=O)c(=O)n(C)c2cc(S(=O)(=O)N3CCN(Cc4ccccc4)CC3)ccc21 0.532%, C/C=C\C1=C(CO)[C@H](O)[C@H]2O[C@H]2[C@H]1O -12% [at 13.5 µM], CC(Sc1nncs1)C(=O)NCC(=O)Nc1ccc(F)c(F)c1F (centres undefined) 17.5%, Cc1ccc(-n2[nH]c(C)c(/C=C3/C=Nc4ccccc43)c2=O)cc1C -3.08%, O=c1c2ccccc2cnn1CCOc1ccccc1 -10.5%, CCc1c(C)nc2ncnn2c1Nc1ccc(C(C)=O)cc1 2.1%
